Measured values reported in PubChem BioAssay AID504333 (National Center for Advancing Translational Sciences (NCATS), 2011).
The whole screen tested about 360,000 compounds, of which about 16,000 (4.4%) were called active. The inconclusive results got no clear call from the source; some entries with a clear call stand among them for comparison. The call rests on the fitted dose curve; in most records, active means well fitted inhibition curve with a large enough effect; inconclusive means small, poorly fitted or top-dose-only effect; inactive means no such curve, though single readings can be large or run the other way. Where the call is inconclusive, the potency comes from a doubtful curve fit.

target: Bromodomain adjacent to zinc finger domain protein 2B (Homo sapiens) (UniProt Q9UIF8); assay: qHTS Assay for Inhibitors of BAZ2B; details: AlphaScreen BAZ2B-H3K14Ac peptide displacement; series mostly up to 114 µM; further: nearly all actives have a fitted effect of over 60% in size
UniProt Q9UIF8, sequence (Q9UIF8 whole entry, looked up, the tested form may be a part): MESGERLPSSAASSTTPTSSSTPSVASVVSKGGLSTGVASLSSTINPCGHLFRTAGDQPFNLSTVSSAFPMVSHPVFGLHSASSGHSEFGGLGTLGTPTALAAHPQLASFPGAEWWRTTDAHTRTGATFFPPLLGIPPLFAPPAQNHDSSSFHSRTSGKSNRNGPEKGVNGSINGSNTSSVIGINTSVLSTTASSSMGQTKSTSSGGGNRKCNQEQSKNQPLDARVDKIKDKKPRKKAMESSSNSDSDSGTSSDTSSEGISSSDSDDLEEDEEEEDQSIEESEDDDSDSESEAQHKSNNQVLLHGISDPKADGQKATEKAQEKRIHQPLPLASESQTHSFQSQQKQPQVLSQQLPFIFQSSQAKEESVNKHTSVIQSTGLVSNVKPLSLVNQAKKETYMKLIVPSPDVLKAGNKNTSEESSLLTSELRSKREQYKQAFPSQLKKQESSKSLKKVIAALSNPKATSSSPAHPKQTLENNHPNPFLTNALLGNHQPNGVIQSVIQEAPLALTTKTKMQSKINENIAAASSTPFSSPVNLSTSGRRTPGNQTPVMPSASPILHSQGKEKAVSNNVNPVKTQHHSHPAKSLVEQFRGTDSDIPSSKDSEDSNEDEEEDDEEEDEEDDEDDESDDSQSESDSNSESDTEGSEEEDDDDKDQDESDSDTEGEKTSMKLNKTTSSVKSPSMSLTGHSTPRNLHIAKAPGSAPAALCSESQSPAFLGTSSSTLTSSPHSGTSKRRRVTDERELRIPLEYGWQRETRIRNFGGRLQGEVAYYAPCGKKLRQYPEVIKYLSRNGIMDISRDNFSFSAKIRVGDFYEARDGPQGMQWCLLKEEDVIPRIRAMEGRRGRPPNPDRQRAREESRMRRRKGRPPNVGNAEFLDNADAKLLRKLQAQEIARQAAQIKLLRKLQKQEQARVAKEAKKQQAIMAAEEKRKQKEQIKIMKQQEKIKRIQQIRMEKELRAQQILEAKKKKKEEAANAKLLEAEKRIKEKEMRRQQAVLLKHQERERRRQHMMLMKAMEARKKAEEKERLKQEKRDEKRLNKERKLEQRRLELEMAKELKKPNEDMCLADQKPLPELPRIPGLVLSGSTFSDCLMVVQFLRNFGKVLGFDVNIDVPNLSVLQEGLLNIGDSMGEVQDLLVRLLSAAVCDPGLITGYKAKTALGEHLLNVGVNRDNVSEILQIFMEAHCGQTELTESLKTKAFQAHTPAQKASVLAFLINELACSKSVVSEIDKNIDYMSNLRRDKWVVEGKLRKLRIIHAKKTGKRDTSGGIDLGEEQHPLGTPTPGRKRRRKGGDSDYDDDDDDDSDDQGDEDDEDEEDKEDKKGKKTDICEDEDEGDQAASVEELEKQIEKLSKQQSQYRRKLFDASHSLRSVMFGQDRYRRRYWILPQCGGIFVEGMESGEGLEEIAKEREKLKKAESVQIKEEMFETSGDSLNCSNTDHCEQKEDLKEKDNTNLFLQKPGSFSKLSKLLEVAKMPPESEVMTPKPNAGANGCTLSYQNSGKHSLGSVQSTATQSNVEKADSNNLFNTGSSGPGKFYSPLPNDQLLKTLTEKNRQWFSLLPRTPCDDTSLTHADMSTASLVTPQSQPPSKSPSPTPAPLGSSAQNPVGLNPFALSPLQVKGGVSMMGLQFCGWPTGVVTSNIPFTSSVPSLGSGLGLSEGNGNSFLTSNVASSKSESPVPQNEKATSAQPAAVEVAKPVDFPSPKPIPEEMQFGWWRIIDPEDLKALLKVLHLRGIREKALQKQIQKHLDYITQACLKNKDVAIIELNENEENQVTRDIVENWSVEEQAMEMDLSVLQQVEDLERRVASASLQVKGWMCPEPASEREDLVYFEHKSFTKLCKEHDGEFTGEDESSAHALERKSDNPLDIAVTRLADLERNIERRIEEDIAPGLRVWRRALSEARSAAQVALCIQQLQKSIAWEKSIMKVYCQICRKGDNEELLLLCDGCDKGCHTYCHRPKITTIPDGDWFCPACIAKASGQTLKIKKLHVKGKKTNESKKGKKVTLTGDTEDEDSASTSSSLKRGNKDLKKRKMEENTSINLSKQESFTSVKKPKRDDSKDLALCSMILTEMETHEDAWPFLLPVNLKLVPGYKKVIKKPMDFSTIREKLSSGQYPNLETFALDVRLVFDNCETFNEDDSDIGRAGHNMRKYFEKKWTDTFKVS
Summary of the method: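 AlphaScreen luminescence quantifies BAZ2B engagement of H3K14Ac peptide; the protein and biotinylated peptide are both at 50 nM final, buffer PBS pH 7.4 with 0.01% Tween-20, all steps at room temperature.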
Potency means the concentration at half of the fitted maximal effect; tags describe the fitted curve by direction and shape.

Row | SMILES | Potency
1 | Cc1cc2cc(C(c3nnnn3Cc3ccco3)N3CCc4ccccc4C3)c(=O)[nH]c2cc1C (configuration not stated) | active: 44.7 µM
2 | Cc1ccc(-n2ncc3c2CC(C)(C)CC3NC(=O)c2ccncc2)cc1 (configuration not stated) | inactive
3 | COc1cc(C2C(C#N)=C(N)N(c3ccc(F)cc3)C3=C2S(=O)(=O)CC3)ccc1O (configuration not stated) | inactive
4 | Cn1c(C(O)c2ccc(Cl)cc2)nc(Cl)c1Cl (configuration not stated) | inconclusive: 79.4 µM [inhibitor, single point]
5 | Cc1ccc(CN2CCN(CC3CC4C=CC3C4)CC2)cc1 (configuration not stated) | active: 28.2 µM
6 | C/C(N)=C(/C#N)C(=O)COC(=O)C1Cc2ccccc2CN1S(C)(=O)=O (configuration not stated) | inconclusive: 79.4 µM [inhibitor, single point]
7 | Cc1cccc2nc(CSCc3ccco3)cn12 | inconclusive: 50.1 µM [inhibitor, partial curve]
8 | CCOC(=O)c1cc(-c2ccc(C)cc2)n(CCC(=O)NC(C)CC)c1C (configuration not stated) | inconclusive: 89.1 µM [inhibitor, single point]
9 | O=C(N[C@@H](Cc1ccccc1)C(=O)N1CCC2(CC1)NCCc1[nH]cnc12)c1cccc(Br)c1 | inconclusive: 79.4 µM [inhibitor, partial curve]
10 | COc1cc(C2C3=C(CCCC3=O)Nc3c2c(C)nn3-c2cccc(C)c2)cc(OC)c1O (configuration not stated) | inconclusive: 50.1 µM [inhibitor, partial curve]
11 | CCN1CCN(Cc2ccc(NC(=O)c3ccc(C)c(NC(=O)c4c[nH]c5cc(C(F)(F)F)ccc5c4=O)c3)cc2C(F)(F)F)CC1 | inconclusive: 79.4 µM [inhibitor, single point]
12 | Oc1c(CN2CCOCC2)cc(COCc2ccccc2)c2cccnc12 | active: 11.2 µM
13 | Cn1c(=O)n(C)c2cc(N3CCOCC3)c(NS(=O)(=O)c3cccc(C#N)c3)cc21 | active: 22.4 µM
14 | Cc1nn2cc(-c3ccc(OC(C)C)cc3)nc2s1 | inconclusive: 89.1 µM [inhibitor, partial curve]
15 | Cc1cc(C)c2nc(-c3ccccn3)cc(C(=O)Nc3ccc(S(=O)(=O)Nc4cc(C)on4)cc3)c2c1 | active: 50.1 µM
16 | CCOC(=O)/C(N=Nc1c(C)n(C)n(-c2ccccc2)c1=O)=C(/O)c1ccccc1 | inconclusive: 79.4 µM [inhibitor, partial curve]
17 | COc1ccccc1C(C)Nc1ccc(S(=O)(=O)N2CCN(C)CC2)cc1[N+](=O)[O-] (configuration not stated) | active: 39.8 µM
18 | CC1=CC(C)(C)n2c(O)c(N=N)c3c(C)ccc1c32 | inconclusive: 35.5 µM [inhibitor, partial curve, poor fit]
19 | CN1CCN(CC(O)COc2ccc(C34CC5CC(CC(C5)C3)C4)cc2)CC1 (configuration not stated) | inconclusive: 50.1 µM [inhibitor, partial curve]
20 | Cc1ccc(C(=O)N(Cc2ccc(N(C)C)cc2)CC2CCCO2)cc1 (configuration not stated) | active: 35.5 µM
21 | O=C(O)C1C2CCC(O2)C1C(=O)Nc1cccc(F)c1 (configuration not stated) | inconclusive: 89.1 µM [inhibitor, single point]
22 | CCOC(=O)C1CCCN(C(=O)c2ccc(CS(=O)(=O)c3ccc(C)cc3)o2)C1 (configuration not stated) | inconclusive: 89.1 µM [inhibitor, single point]
23 | Cc1ccc2nc(Cl)c(C3CC(c4ccco4)=NN3S(C)(=O)=O)cc2c1 (configuration not stated) | inconclusive: 79.4 µM [inhibitor, single point]
24 | CCc1cc(=O)oc2c(CN3CCN(C)CC3)c(O)ccc12 | inactive

Row | SMILES | Potency
25 | O=C(N/N=C/c1ccco1)c1cc(-c2ccccc2)nc2ccccc12 | inconclusive: 39.8 µM [inhibitor, partial curve]
26 | Cc1cccc(NC(=O)CCNC(=O)c2ccco2)c1 | inactive
27 | CCOC(=O)C(C(=O)OCC)C1CCS(=O)(=O)C1 (configuration not stated) | inconclusive: 3.55 µM [inhibitor, single point]
28 | C[C@H](NC(=O)N1CCn2c1nc1ccccc12)C(=O)N1CCCCC1 | inactive
29 | O=C(O/N=C\c1ccc(N2CCCCC2)c([N+](=O)[O-])c1)c1cccc(C(F)(F)F)c1 | inconclusive: 7.94 µM [inhibitor, full curve]
30 | Cc1ccc(OCC(=O)Nc2ccc(OCc3cc(=O)n4ccsc4n3)cc2)cc1C | inactive
31 | CCOC(=O)c1sc(=S)n(-c2ccccc2OC)c1N | inconclusive: 89.1 µM [inhibitor, single point]
32 | Cc1cccc(CCNC(=O)C2CCCN(c3cnccn3)C2)c1 (configuration not stated) | inconclusive: 79.4 µM [inhibitor, single point]
33 | Cc1nccc2[nH]c(=O)c(C(=O)NC3CCCCC3C)cc12 (configuration not stated) | inconclusive: 3.55 µM [inhibitor, full curve, poor fit]
34 | CN1CCN(c2ccc(NC(=O)c3ccc(-c4ccccc4F)o3)cc2)CC1 | inconclusive: 44.7 µM [inhibitor, partial curve]
35 | Cn1c(=O)n(CCOc2ccc(Cl)cc2Cl)c2ccccc21 | inactive
36 | C=CCN(CC=C)C(=S)NC(=O)Cc1cccc2ccccc12 | inconclusive: 56.2 µM [inhibitor, partial curve]
37 | O=S(=O)(/C=C/c1ccccc1)Nc1ccc(N2CCOCC2)cc1 | inconclusive: 89.1 µM [inhibitor, single point]
38 | Nc1nc(-c2ccc3ccccc3c2)cs1 | inconclusive: 50.1 µM [inhibitor, partial curve]
39 | CCOC(=O)c1c(-c2ccccc2)csc1NC(=O)CCN1CCOCC1 | active: 50.1 µM
40 | COCCCNC(=O)/C=C/c1ccc(Cl)cc1Cl | inactive
41 | CN1CCN(c2ccc(NC(=O)c3cccc(OCc4ccccc4)c3)cc2)CC1 | inconclusive: 39.8 µM [inhibitor, full curve, poor fit]
42 | C=C(C)C(=O)OCCCCCCOc1ccc(C(=O)O)cc1 | inconclusive: 39.8 µM [inhibitor, partial curve]
43 | CC(=O)Nc1ccc(S(=O)(=O)Nc2cccc(-c3cn4cccnc4n3)c2)cc1 | inactive
44 | CCN(CC)c1nc(C)nc2c1cnn2CCc1ccccc1 | inconclusive: 89.1 µM [inhibitor, single point]
45 | Cc1ccc(/C=N/n2c(-c3ccccn3)n[nH]c2=S)o1 | active: 5.01 µM
46 | CCC1S/C(=N/N=C/c2ccco2)N(Cc2ccc(F)cc2)C1=O (configuration not stated) | inconclusive: 20 µM [inhibitor, full curve]
47 | COc1cccc([C@@H]2CC=C(C(=O)O)[C@H](c3ccccc3F)N2S(=O)(=O)c2ccc(C)cc2)c1 | active: 79.4 µM
48 | CC(C)OC(=O)CSc1nnc(SCc2cccc3ccccc23)s1 | inconclusive: 39.8 µM [inhibitor, single point]

Row | SMILES | Potency
49 | CCOc1ccccc1-n1c(SC(C)C(=O)NCC2CCCO2)nc2ccccc2c1=O (configuration not stated) | inactive
50 | O=C(Nc1ccc(Cl)cc1)C1CCN(C(=O)c2cccs2)CC1 | inactive
51 | CC(C)Oc1ccc(S(=O)(=O)N2CCCCC2)cc1NC(=O)CC1OC(=O)c2ccccc21 (configuration not stated) | inactive
52 | O=C(Cc1c[nH]c2ccccc12)NCc1cccs1 | inactive
53 | CCCC(=O)NC(=S)Nc1ccccc1C(=O)OC | inactive
54 | CC(NC(=O)OCc1ccccc1)C(=O)NCC(=O)NC(Cc1ccc(OC(C)(C)C)cc1)C(=O)OC(C)(C)C (configuration not stated) | inactive
55 | COc1cccc(-n2nnnc2SCC(=O)c2ccc(NC(C)=O)cc2)c1 | inactive
56 | COc1ccc(/C=C2/C(=O)N(c3nc4ccccc4s3)N=C2CSc2ccc(Cl)cc2)cc1 | inactive
57 | COC(=O)c1c(-c2ccc(C)cc2)csc1NC(=O)Cc1ccc(OC)c(OC)c1 | inconclusive: 70.8 µM [inhibitor, single point]
58 | CN1CCN(C(=O)CCCN2C(=O)/C(=C/c3ccc(Cl)cc3)SC2=S)CC1 | inconclusive: 39.8 µM [inhibitor, partial curve]
59 | CCC(/C=C1\Sc2ccc(OC)cc2N1CC)=C\c1sc2ccc(OC)cc2[n+]1CCCS(=O)(=O)[O-] | active: 22.4 µM
60 | CCn1c(C)c(C2=CCN(S(=O)(=O)c3ccccc3)CC2)c2ccccc21 | inconclusive: 17.8 µM [inhibitor, full curve]
61 | Cc1ccc(S(=O)(=O)NCCC(=O)Nc2ncccc2O)cc1C | inconclusive: 100 µM [inhibitor, single point]
62 | COc1ccc(N2Cc3cccc(C(=O)O)c3C2=O)cc1 | active: 20 µM
63 | COc1ccc(-c2cc(C(F)(F)F)nc(SCC(=O)N(C)Cc3cn(C)nc3C)n2)cc1OC | inactive
64 | Cc1ccccc1Cn1ccn(-c2ccc(F)c(F)c2)c(=O)c1=O | inactive
65 | Cc1cc(C(=O)COC(=O)c2ccc[nH]c2=O)c(C)n1C | inconclusive: 89.1 µM [inhibitor, single point]
66 | CC(=O)N[C@@H](Cc1c[nH]c2ccccc12)C(=O)OCC(=O)Nc1ccc(Cl)c(S(=O)(=O)N(C)C)c1 | inconclusive: 50.1 µM [inhibitor, partial curve]
67 | O=C(NCC(c1ccco1)N1CCN(c2ccc(F)cc2)CC1)OCc1ccccc1 (configuration not stated) | inconclusive: 70.8 µM [inhibitor, single point]
68 | CCCCNc1ccc(S(=O)(=O)c2cccc([N+](=O)[O-])c2)cc1[N+](=O)[O-] | inconclusive: 5.62 µM [inhibitor, full curve]
69 | COc1cc(C2Nc3ccc4ncccc4c3C3=C2C(=O)CCC3)cc(OC)c1O (configuration not stated) | inactive
70 | c1ccc(-c2nn[nH]n2)nc1 | active: 5.62 µM
71 | O=C(CSc1ccc(-c2ccco2)nn1)Nc1ccc(F)cc1 | inconclusive: 89.1 µM [inhibitor, single point]
72 | O=C(C1CC(=O)N(c2ccc(F)cc2)C1)N1CCC(c2nc3ccccc3[nH]2)CC1 (configuration not stated) | inactive
